{"source": "ChEMBL document CHEMBL1201862", "about": "“PubChem BioAssay data set” (2004)", "note": "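Cultured in 96-well plates, cells were exposed to test compound for 48 hours across five concentrations. The concentration for 50% growth inhibition is given as GI50.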 Activity calls are given as the source filed them. Cut-off read from the data, not from the text of the source: active = GI50 up to about 1.1 µM and inactive = higher."}
{"test_system": "NCI-H322M", "assay": "NCI anticancer screen, dose series, 48 h"}
{"compound": "COc1cc(Cl)c2c3c(c(C(=O)c4ccccc4)oc13)CCC2", "GI50": "inactive: > 100 µM"}
{"compound": "O=c1[nH]c(=S)c2cc3c(=S)[nH]c(=O)n(CCC(c4ccccc4)(c4ccccc4)c4ccccc4)c3nc2n1CCC(c1ccccc1)(c1ccccc1)c1ccccc1", "GI50": "inactive: > 100 µM"}
{"compound": "N=c1c2ccccc2nc2oc3ccccc3n12", "GI50": "inactive: 26 µM"}
{"compound": "COP(=O)(OC)[C@H](O)[C@H]1C[C@@H]1c1ccccc1", "GI50": "inactive: > 100 µM"}
{"compound": "CCc1ccc(/C=C\\c2cc(OC)c(OC)c(OC)c2)cc1", "GI50": "active: 0.118 µM"}
{"compound": "O=S(=O)(O)c1ccc(/N=N/c2ccc(/N=N/c3c(O)ccc4ccccc34)c(S(=O)(=O)O)c2)cc1", "GI50": "inactive: > 100 µM"}
{"compound": "CC1=C(O)C(=O)c2ccccc2C1=O", "GI50": "inactive: 97.5 µM"}
{"compound": "CC(=O)OCC1OC(On2ccccc2=S)C(OC(C)=O)C(OC(C)=O)C1OC(C)=O", "note": "(stereo not given)", "GI50": "inactive: > 100 µM"}
{"compound": "COc1cc(/C=C/c2ccc(S(N)(=O)=O)cc2)cc(OC)c1", "GI50": "inactive: 26.3 µM"}
{"compound": "CC(=O)ON(OC(C)=O)c1ccc(C)cc1", "GI50": "inactive: 55 µM"}
{"compound": "O=c1ccn(C/C=C/c2ccccc2)c(=S)n1C/C=C/c1ccccc1", "GI50": "inactive: 96.8 µM"}
{"compound": "CCCC/C=C/C=C/C=C/CCCCCCCC(=O)OCC(COC(=O)CCCCCCC/C=C/C1C=CC(CCCC)C(C(=O)O)C1C(=O)O)OC(=O)CCCCCCC/C=C/C=C/C=C/CCCC.OCCNCO", "note": "(stereo not given)", "GI50": "inactive: 24.9 µM"}
{"compound": "COc1cc(S(=O)(=O)Nc2ccc(-c3csc(/N=C\\c4cccs4)n3)cc2)ccc1Cl", "GI50": "inactive: 63 µM"}
{"compound": "CSc1c(C#N)c(N)n2c1C(=O)N(c1ccccc1)C2=S", "GI50": "inactive: 96.6 µM"}
{"compound": "CCN(CC)CCC(=O)NC1c2ccccc2Oc2c(C)cccc21", "note": "(stereo not given)", "GI50": "inactive: > 100 µM"}
{"compound": "C=CCc1ccccc1CC1(OCC)OC(=O)c2ccccc21", "note": "(stereo not given)", "GI50": "inactive: > 100 µM"}
{"compound": "O=c1c2cc(S(=O)(=O)O)ccc2nc(COc2ccc(Oc3ccc(Cl)cc3Cl)cc2)n1-c1ccc(Oc2ccc(Cl)cc2)cc1Cl", "GI50": "inactive: 33.7 µM"}
{"compound": "Cc1cccc(/N=N/c2ccc(O)c(CN(C)C)c2)c1", "GI50": "inactive: 36.5 µM"}
{"compound": "O=NN(CCCl)C(=O)N[C@H]1CC[C@@H](CC(=O)O)CC1", "GI50": "inactive: > 100 µM"}
{"compound": "N#CCCC1(CCC#N)CCc2ccccc2C1=O", "GI50": "inactive: > 100 µM"}
{"compound": "C[N+](C)(C)CC(=O)N/N=C/c1ccncc1", "GI50": "inactive: > 100 µM"}
{"compound": "Cc1ccnc2nc(-c3cccc(Cl)c3)cc(O)c12", "GI50": "active: 0.326 µM"}
{"compound": "COc1ccccc1N1C(=O)CS(=O)(=O)C1c1cccc(Oc2ccccc2)c1", "note": "(stereo not given)", "GI50": "inactive: 23.6 µM"}
{"compound": "COc1ccc(-c2cc(=O)c3c(O)c(O)c(OC)cc3o2)cc1O", "GI50": "inactive: > 100 µM"}
{"compound": "O=C(CC(O)(C(F)(F)F)C(F)(F)Cl)CC(O)(C(F)(F)F)C(F)(F)Cl", "note": "(stereo not given)", "GI50": "inactive: 2.66 µM"}
{"compound": "Cc1ccc2cccc(-c3cccc4ccccc34)c2n1", "GI50": "inactive: 25.4 µM"}
{"compound": "COc1ccc2c(c1OC)OC[C@@H](C1=CC(=O)C=C(O)C1=O)C2", "GI50": "inactive: 16.4 µM"}
{"compound": "O=C1CCC(c2nc3ccccc3o2)C(=O)N1", "note": "(stereo not given)", "GI50": "inactive: > 100 µM"}
{"compound": "O=C(O)c1ccc(C(=O)c2ccccc2)c(C(=O)O)c1", "GI50": "inactive: > 100 µM"}
{"compound": "Brc1ccc(C2(N3CCCCC3)CCCCC2)s1", "GI50": "inactive: > 100 µM"}
{"compound": "O=C(/C(=C\\c1ccc(Cl)cc1)c1ccccc1)c1ccccc1", "GI50": "inactive: > 100 µM"}
{"compound": "CCOc1ccc(NC2=NC(=O)C(CC(=O)Nc3ccc(Cl)cc3Cl)S2)cc1", "note": "(stereo not given)", "GI50": "inactive: > 100 µM"}
{"compound": "O=C(/C=C1\\Nc2ccccc2C(=O)N1c1ccc(Cl)cc1)c1ccncc1", "GI50": "inactive: > 100 µM"}
{"compound": "Cc1cc2nc(N3C(=O)/C(=C/c4ccc(N(C)C)cc4)N=C3c3ccccc3)sc2cc1C", "GI50": "inactive: 27.7 µM"}
{"compound": "COc1cc(/C=N/N=C2NCCN2)ccc1O", "GI50": "inactive: > 100 µM"}
{"compound": "O=C1C2C(c3ccccc3)NC(c3ccccc3)C1C(c1ccccc1)NC2c1ccccc1", "note": "(stereo not given)", "GI50": "inactive: > 100 µM"}
{"compound": "COc1ccc2nc3c([N+](=O)[O-])ccc4c3c(c2c1)N(CCCN(C)C)C(=S)N4CCCN(C)C", "GI50": "inactive: 4.45 µM"}
{"compound": "COc1ccccc1N1CCN(CCCCNC(=O)c2ccc([N+](=O)[O-])o2)CC1", "GI50": "inactive: 9.53 µM"}
{"compound": "Cc1cc2c(cc1Cl)Sc1nnc(Nc3ccccc3)n1S2(=O)=O", "GI50": "inactive: 19.7 µM"}
{"compound": "CCCCCCCCCCCCCCCCCC(=O)NCC(COP(=O)([O-])OCC[N+](C)(C)C)OC", "note": "(stereo not given)", "GI50": "inactive: 13.4 µM"}
{"compound": "Cc1nc2c(Cl)cc(Cl)cc2c2c1CCO2", "GI50": "inactive: > 100 µM"}
{"compound": "CCOC(=O)[C@@H](Cc1ccc(CCl)cc1)NC(C)=O", "GI50": "inactive: 29.8 µM"}
{"compound": "CCCCCCCCCCC(=O)CCCCCCC(=O)O", "GI50": "inactive: 19.9 µM"}
{"compound": "Cc1nn(C(=O)c2ccccc2O)c2c1C(c1ccco1)SC(=N)N2", "note": "(stereo not given)", "GI50": "inactive: 3.43 µM"}
{"compound": "c1ccc2nc3c(nc2c1)sc1nc2ccccc2n13", "GI50": "inactive: > 100 µM"}
{"compound": "CC(=O)OCc1nnn2c1CCC2", "GI50": "inactive: > 100 µM"}
{"compound": "N#CC12CC=C(c3ccccc3)N=C1NC(c1ccccc1)=CC2", "note": "(stereo not given)", "GI50": "inactive: > 100 µM"}
{"compound": "CC1(C)CSCC(C)(C)C(=N/N)/C1=N\\N", "GI50": "inactive: > 100 µM"}
{"compound": "CC(=O)NNC(=O)C1CCCCN1", "note": "(stereo not given)", "GI50": "inactive: > 100 µM"}
{"compound": "O=C(O)c1cc2ccccc2oc1=O", "note": "[COUMARIN-3-CARBOXYLIC ACID]", "GI50": "inactive: > 100 µM"}
{"compound": "COc1nc2c(c(=O)[nH]1)N=C(c1ccc(Cl)cc1)CC(c1ccccc1)N2", "note": "(stereo not given)", "GI50": "inactive: 42.4 µM"}
{"compound": "CCC(C)[C@H]1C(=O)N=C(N)N1C(=O)OCc1ccccc1", "note": "(stereo not given in full)", "GI50": "inactive: > 100 µM"}
{"compound": "CC(=O)c1sc2c(c1OC(=O)c1ccc(Cl)cc1)c(=O)n(-c1ccccc1)c(=S)n2-c1ccccc1", "GI50": "inactive: 3.49 µM"}
{"compound": "O=C(CCCl)NN=C1NCCCN1", "GI50": "inactive: > 100 µM"}
{"compound": "COC(=O)/C=C(C)/C=C/c1c(C)c(C(C)=O)c(C)n1C", "GI50": "inactive: > 100 µM"}
{"compound": "O=C(NCCCCCCCN1CCCCCCC1)C(C1CCCCC1)C1CCCCC1", "GI50": "inactive: 13.3 µM"}
{"compound": "c1ccc(C2OC3(CCC[C@H]4C[C@H]43)O[C@H]2c2ccccc2)cc1", "note": "(stereo not given in full)", "GI50": "inactive: 70.3 µM"}
{"compound": "CSc1ncc2c(n1)-c1ccccc1OC2N1CCCCC1", "note": "(stereo not given)", "GI50": "inactive: 46.2 µM"}
{"compound": "CCC(C)N1CN(c2ccccc2)C2(CCN(CCCC(=O)c3ccc(F)cc3)CC2)C1=O", "note": "(stereo not given)", "GI50": "inactive: 4.27 µM"}
{"compound": "CCOC(=O)NC(Nc1ccc(C(=O)OCC)cc1)(C(F)(F)F)C(F)(F)F", "GI50": "inactive: > 100 µM"}
{"compound": "O=C([O-])C1([n+]2c(-c3ccccc3)cc(-c3ccccc3)cc2-c2ccccc2)CC1", "GI50": "inactive: > 100 µM"}
{"compound": "c1cnc2c3[nH]cc4[nH]c5ccccc5c4c-3nc2c1", "GI50": "inactive: 54.3 µM"}
{"compound": "COc1cc(Br)cc2cc(-c3cn4c(n3)sc3ccccc34)c(=O)oc12", "GI50": "inactive: 19.4 µM"}
{"compound": "CCOC(=O)c1cc(C2CCN(c3ccccc3)C2=O)c(C(=O)/C=C(/C)N)[nH]1", "note": "(stereo not given)", "GI50": "inactive: 45.8 µM"}
{"compound": "COc1ccc(OC)c(N(CN2C(=O)CCC2C(=O)O)C(C)=O)c1", "note": "(stereo not given)", "GI50": "inactive: > 100 µM"}
{"compound": "O=C1c2ccccc2C(=O)c2c1nc1ccccc1c2-c1cncc(-c2c3c(nc4ccccc24)C(=O)c2ccccc2C3=O)c1", "GI50": "inactive: 8.61 µM"}
{"compound": "CC1(O)C=CC2CCC1C2O", "note": "(stereo not given)", "GI50": "inactive: > 100 µM"}
{"compound": "Cc1ccc2oc3c(c(Br)c(Br)n3C)c(=O)c2c1", "GI50": "inactive: 23 µM"}
{"compound": "Cc1c(C(=O)/C=C/c2c(Cl)cccc2Cl)c(=O)n(-c2ccccc2)n1C", "GI50": "inactive: 30.3 µM"}
{"compound": "C#Cc1cc(-c2nc3ccccc3s2)ccc1N", "GI50": "inactive: 18 µM"}
